Data as given in patent US20240122985A1, “ANTIBODIES, COMBINATIONS COMPRISING ANTIBODIES, BIOMARKERS, USES & METHODS” (KYMAB LIMITED, priority 2016, published 2024).

Experiments:
[1] = test system: CD3 primed primary human T lymphocytes; assay: Effect on CD3 primed primary human T lymphocytes (IFN-γ release, agonism); type: cell-based; conditions: IgG4PE format, 10 μg/mL, 5 days, four independent donors
Experimental: In order to determine whether anti-OX40L had the ability to induce T-cell responses in the absence of OX40L, the assay below was performed using method adapted from Wang et al., Hybridoma (Larchmt)., 2009 Aug.; 28(4):269-76, in which an agonist anti-OX40L antibody was described.
A mouse anti-human CD3 antibody (Becton Dickinson) was diluted to 0.5 μg/mL in sterile PBS and 50 μL/well added to a 96 well high binding sterile plate and incubated overnight at 4° C.
T-cells (CD3 positive) were isolated from PBMC derived from leukoreduction system chambers (NHSBT) as described in Example 3. Following isolation, the cells were added to wells in 100 μL to achieve a final concentration of 1×10^5 cells/well.
Test antibodies were diluted in RPMI+10% FBS and 50 μL or 100 μL/well added to cell plate to achieve a final assay concentration of 10 μg/mL. In some cases, a mouse anti-human CD28 antibody (Becton Dickinson) was also added to wells at a final concentration of 1 μg/ml
The assay was incubated for 5 days. After 5 days, harvest supernatants and IFN-γ levels in supernatant were determined as described in Example 5.

[2] = test system: allogeneic PBMC/T-cell MLR; assay: Allogeneic PBMC mixed lymphocyte reaction (IFN-γ release); type: cell-based, human; conditions: one experiment
Experimental: PBMCs are isolated from leukoreduction system chambers (NHSBT) using Ficoll-Paque plus (GE Healthcare) density gradient centrifugation. PBMC are pre-incubated with mitomycin C (Sigma) at 10 μg/mL in PBS for one hour at 37° C. Cells are then washed 3 times in PBS centrifuging at 300×g for 3 minutes, aspirating the supernatant after each wash. Allogeneic PBMC (not treated with mitomycin C) are added to a 96-well plate in RPMI supplemented with 10% v/v FBS at a concentration of 2×10^6/ml, 50 μL/well. Anti-OX40L antibodies are diluted in culture media and added to 96 well plate containing PBMC (not mitomycin C treated) at 50 μL/well. […] After five days TNF-α, IFN-γ, and IL-2 are measured by duoset ELISA (R&D Systems) according to manufacturer's recommendations. Proliferation is measured by CFSE dilution according to manufacturer's recommendations.
PBMCs were isolated from leukoreduction system chambers (NHSBT) using Ficoll-Paque plus (GE Healthcare) density gradient centrifugation. […] After five days, IFN-γ was measured by duoset ELISA (R&D Systems) according to manufacturer's recommendations.
From four experiments performed, one experiment was a technical failure, defined as no MLR response (IFN-γ release) detected between allogeneic donors. […]

[3] = Expression in stable Lonza pools (shake flask fed batch overgrow); conditions: 4 separate stable pools, shake flasks
Description: In order to produce the gram amounts required for toxicology studies, 10A7 and 2D10 OX40L antibodies were transferred to the Lonza GS Xceed system for stable expression. The HC and LC for each antibody was first codon optimised for expression in CHO cells by Genewiz. The HC cassette (containing the optimised IgG4PE constant region) was then cloned into Lonza's pXC18.4 vector and LC cassette (containing the optimised kappa constant region) cloned into Lonza's pXC17.4 vector using standard restriction enzyme digestion and ligation. A double gene vector (DGV) encoding both the HC and LC sequences was then created by restriction enzyme digestion and ligation and sequence confirmed before expression.
Stable pools were generated using Lonza's proprietary methods and media. 4 pools were created per antibody and left to recover over a period of 10-15 days. After the cells had recovered, pre-seed stocks (PSS) of cells were frozen down for later recovery and creation of MCB. Small scale (50 mL) shake flask fed batch overgrows were then set up using Lonza's proprietary media. Cells were left to overgrow for a period of 14 days. During this period cells were monitored for growth, viability and glucose levels. Cells were supplemented accordingly with Lonza's proprietary feed and 400 g/L glucose. Samples were also taken throughout the process for crude sample quantification. […]

[4] = test system: CD4^+ Tscm and T naïve cells; assay: flow cytometry of T-cell subsets (Tscm, naïve, central memory) after allogeneic HCT; type: in vivo, Rhesus macaque; conditions: absolute numbers, treated versus control animal; FIG. 4
Description: FIG. 3: Expansion of Tscm cells following allogeneic HCT. Plots are gated on CD4^+CD45RA^+CCR7^+ T-cells.
Absolute numbers of peripheral blood CD4^+ Tscm (left) and T naïve (right) following allogeneic HCT in control animal and 2D10 IgG4-PE treated animals.
FIG. 6A: Effects of OX40L blockade on SCM CD4^+ T-cells. Datapoints for 02D10 Ig4PE are shown by circles (●), rapamycin by filled squares (▪) and tacrolimus plus methotrexate (Tac/MTX) by open squares (0).
FIG. 6B: Effects of OX40L blockade on SCM CD8^+ T-cells. Datapoints for 02D10 Ig4PE are shown by circles (●), rapamycin by filled squares (▪) and Tac/MTX by unfilled squares (0). […]
In another embodiment, the naïve population is measured by evaluating the relative proportion of specific T-cell phenotypes using flow cytometry where cell subsets are identified by labelling with fluorescent antibody probes and whereby naïve CD4^+ or CD8^+ T-cells are labelled CD4^+/CD28^+/CD95^− or CD8^+/CD28^+/CD95^−, respectively, central memory CD4^+ or CD8^+ T-cells are labelled CD4^+/CD28^+/CD95^+ or CD8^+/CD28^+/CD95^+, respectively, and effector memory CD4^+ or CD8^+ T-cells are labelled CD4^+/CD28^−/CD95^+ or CD8^+/CD28^−/CD95^+, respectively. • 103.

[5] = test system: Rhesus macaque model of haploidentical hematopoietic stem cell transplantation; assay: survival in Rhesus macaque haploidentical HSCT (GVHD) model; conditions: rhesus monkey recipients of haploidentical half-sibling HSCT; post-transplant prophylactic therapy; FIG. 7A

Molecule	IFN-γ release over that observed with human IgG4PE isotype control [1]	IFN-γ release compared to the isotype control [2]	Expression titres in stable Lonza pools [3]	peripheral blood CD4^+ Tscm and T naïve cells following allogeneic HCT [4]	median survival time, MST [5] [days]
10A07: anti-hOX40L antibody; VH SEQ ID No:2, VL SEQ ID No:16; IgG4-PE heavy chain SEQ ID No:30, light chain SEQ ID No:32 (antibody, 10A07 - Heavy Chain Amino Acid Sequence; 10A07 - Light Chain Amino Acid Sequence) heavy: EVQLVESGGVLVQPGGSLRLSCAASGFTFSSYIMTWVRQAPGKGLEWVSGISGSGGGTYYADSMKGRFTISRDNSKNTLYLQMNSLRVEDTAVYYCAKDRLGPITLVRGGYYYGMDVWGQGTTVTVSSASTKGPSVFPLAPCSRSTSESTAALGCLVKDYFPEPVTVSWNSGALTSGVHTFPAVLQSSGLYSLSSVVTVPSSSLGTKTYTCNVDHKPSNTKVDKRV[human IgG4 Fc with changes omitted here] light: DIQMTQSPSSLSASVGDRVTITCRASQSISDYLNWYQQKPGKAPKFLIYAASSLQSGVPSRFSGSGSGTDFTLTVSSLQPEDFATYYCQQSYSTPRTFGQGTRVEIKRTVAAPSVFIFPPSDEQLKSGTASVVCLLNNFYPREAKVQWKVDNALQSGNSQESVTEQDSKDSTYSLSSTLTLSKADYEKHKVYACEVTHQGLSSPVTKSFNRGEC	no effect	inhibited IFN-γ release	very low titres	–	–
2D10: anti-hOX40L antibody; VH SEQ ID No:34, VL SEQ ID No:48; IgG4-PE heavy chain SEQ ID No:62, light chain SEQ ID No:64 (antibody, 02D10 - Heavy Chain Amino Acid Sequence; 02D10 - Light Chain Amino Acid Sequence) heavy: EVQLVESGGGLVQPGGSLRLSCAASGFTFSNYAMNWVRQAPGKGLEWVSTISGSGGATRYADSVKGRFTISRDNSRNTVYLQMNSLRVEDTAVFYCTKDRLIMATVRGPYYYGMDVWGQGTTVTVSSASTKGPSVFPLAPCSRSTSESTAALGCLVKDYFPEPVTVSWNSGALTSGVHTFPAVLQSSGLYSLSSVVTVPSSSLGTKTYTCNVDHKPSNTKVDKRV[human IgG4 Fc with changes omitted here] light: DIQMTQSPSSLSASVGDRVTITCRASQSISSYLNWYQQKPGKAPNLLIYAASSLQSGVPSRFSGSGSETDFTLTISSLQPEDFATYYCQQSHSVSFTFGPGTKVDIKRTVAAPSVFIFPPSDEQLKSGTASVVCLLNNFYPREAKVQWKVDNALQSGNSQESVTEQDSKDSTYSLSSTLTLSKADYEKHKVYACEVTHQGLSSPVTKSFNRGEC	no effect	–	much greater titres	controls expansion of CD4^+ Tscm cells while preserving CD4^+ T naïve cells	19
